Data published in the supplement of paper PMC4967469.
The IC50 comes from the fitted curve, where viability falls to half of the control; a limit (>, <) means that the fit lies beyond the doses tested. AUC is the area under the same curve over the 256-fold range up to the top dose, as a fraction; the more sensitive the line, the further below 1. For part of these data: Any top dose called inferred comes from the curve model; the source does not state it. For part of these data: Drugs with an entry number were screened twice under separate entries, and the two screens often disagree.

Legend:
Assay in all cases: Viability of human cancer cell lines after 72 h of drug (GDSC screen)
[1] = compound: C/C(O)=C(\C#N)C(=O)Nc1cc(Br)ccc1Br [LFM-A13]; settings: top dose 16 µM; top dose inferred
Experimental: (§1)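 Human cancer cell lines in 384-well plates, medium with 10% serum, drug for 72 h over a 256-fold dose range (nine 2-fold or five 4-fold steps up to the top dose). Adherent lines were fixed and stained with the nucleic acid dye Syto60, suspension lines read with resazurin; signal relative to control wells, capped at 0 and 100%. One two-parameter sigmoid per drug and line, fitted in a mixed model over all curves with the slope shared within a line.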

[2] = compound: CCNC(=O)c1noc(-c2cc(C(C)C)c(O)cc2O)c1-c1ccc(CN2CCOCC2)cc1 [AUY922]; settings: top dose 0.256 µM; top dose inferred
Experimental: as §1

[3] = compound: CC(O)(CS(=O)(=O)c1ccc(F)cc1)C(=O)Nc1ccc(C#N)c(C(F)(F)F)c1 [Bicalutamide]; settings: top dose inferred
Experimental: as §1

[4] = compound: Cc1cn(-c2cc(NC(=O)c3ccc(C)c(Nc4nccc(-c5cccnc5)n4)c3)cc(C(F)(F)F)c2)cn1 [Nilotinib]; settings: top dose 2 µM
Experimental: as §1

[5] = compound: CC(C)c1ccccc1Cc1cc(C(=O)Nc2ccc(S(=O)(=O)c3ccccc3C(C)(C)C)cc2)c(O)c(O)c1O [TW-37]; settings: top dose 5 µM
Experimental: as §1

[6] = compound: S=C(NCc1ccc2c(c1)OCO2)N1CCN(c2ncnc3c2oc2ccccc23)CC1 [MP470]; settings: top dose 20 µM; top dose inferred
Experimental: as §1

[7] = compound: Cc1ccc(Nc2cc(-c3cccc(N4C(=O)c5ccccc5C4=O)c3)ncn2)cc1NS(C)(=O)=O [KIN001-270]; settings: top dose 20 µM; top dose inferred
Experimental: as §1

[8] = compound: O=S(=O)(c1ccccc1)N(CC(F)(F)F)c1ccc(C(O)(C(F)(F)F)C(F)(F)F)cc1 [T0901317]; settings: top dose 10.24 µM; top dose inferred
Experimental: as §1

[9] = compound: Nc1ccn([C@@H]2O[C@H](CO)[C@@H](O)C2(F)F)c(=O)n1 [Gemcitabine]; settings: top dose 1.024 µM
Experimental: as §1

[10] = top dose 1.024 µM, screen: GDSC drug entry 150
[11] = top dose 10 µM, screen: GDSC drug entry 1502

Cell Line	AUC [1]	IC50 [1] [nM]	AUC [2]	IC50 [2] [nM]	AUC [3, 10]	IC50 [3, 10] [nM]	AUC [3, 11]	IC50 [3, 11] [nM]	AUC [4]	IC50 [4] [nM]	AUC [5]	IC50 [5] [nM]	AUC [6]	IC50 [6] [nM]	AUC [7]	IC50 [7] [nM]	AUC [8]	IC50 [8] [nM]	AUC [9]	IC50 [9] [nM]
SW756 (cervix, adherent)	0.963	> 16000	0.635	40.6	0.982	> 1020	0.982	> 10000	0.984	> 2000	0.374	131	0.87	> 20000	0.966	> 20000	0.958	> 10200	0.287	14.1
SW780 (bladder, adherent)	0.985	> 16000	0.98	> 256	0.96	> 1020	0.915	> 10000	0.986	> 2000	0.881	> 5000	0.63	2960	0.979	> 20000	0.984	> 10200	0.986	> 1020
SW948 (large intestine, adherent)	0.982	> 16000	0.969	> 256	0.978	> 1020	0.764	5350	0.976	> 2000	0.932	> 5000	0.91	> 20000	0.963	> 20000	0.976	> 10200	0.921	> 1020
SW1417 (large intestine, adherent)	0.974	> 16000	0.925	> 256	0.986	> 1020	0.977	> 10000	0.986	> 2000	0.7	1270	0.956	> 20000	0.986	> 20000	0.979	> 10200	0.951	> 1020
SW1710 (bladder, adherent)	0.95	> 16000	0.319	4.89	0.984	> 1020	0.962	> 10000	0.985	> 2000	0.554	440	0.954	> 20000	0.98	> 20000	0.965	> 10200	0.059	< 4
SW1783 (glioma, adherent)	0.99	> 16000	0.345	6.23	0.991	> 1020	–	–	0.991	> 2000	0.451	232	0.977	> 20000	0.991	> 20000	0.981	> 10200	0.055	< 4
Saos-2 (osteosarcoma, adherent)	0.929	> 16000	0.665	56.1	0.977	> 1020	0.957	> 10000	0.981	> 2000	0.563	501	0.98	> 20000	0.981	> 20000	0.981	> 10200	0.949	> 1020
